# ± gives the standard deviation of the averaged measurements. This is one part of the list.
# Tested on: PfAP2-I AP2 domain 3 (GST-tagged)
# Assay: gcPBM binding intensity (ln(normalized median fluorescence intensity)); higher = stronger DNA binding
# Method in brief: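 Binding intensity values are the highest Masliner-normalised natural-log median intensity among replicate spots of either probe orientation. The binding step lasted 1 h in 1× PBS with 1% milk, 0.2 mg/ml BSA, 0.5% salmon testes DNA and 0.03% Triton X-100, using GST-tagged P. falciparum DNA-binding domains expressed in E. coli on an Agilent 4 × 180k array of primer-extended double-stranded 36-bp intergenic genomic probes plus negative controls. Alexa488 anti-GST antibody and a 488 nm scan detected bound protein.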
row,Sequence,gcPBM binding intensity (ln)
1,ACTTATATAAAACATTAACACACAAAGAAAAAAAAT [CACACA_site8529],8.13 ± 0.77
2,GATACACCAAATAACTGTACGCACGTGTAATATTAA [XGTACX_site3441],8.77 ± 0.46
3,AAGAAAAAAAAAATTACACACTGCGCACATACACAA [CACACA_site6721],8.38 ± 0.61
4,TATATATATATATATACACACATATATACCTATATA [CACACA_site6085],9.18 ± 0.41
5,ATTAAATACATTAACACACACACAAATATATACATA [CACACA_site2881],7.87 ± 0.37
6,AATAATAATACTAATCGTACGCATATTTTTCAAACC [XGTACX_site8055],7.98 ± 0.38
7,CATTTAACATAAATTAAACACACAATATAATACATT [CACACA_site8333],7.72 ± 0.61
8,AAAGATAAAATATTATGTACATATATATATATATAT [XGTACX_site5079],9.44 ± 0.54
9,GGGAATATAAGTACACGATAATATGTGATAAGGTCT [CACACA_negctrl_site1502],8.28 ± 0.86
10,TTTTATTTTTATTATACACACGCTTAATAAATGCAT [CACACA_site1751],7.99 ± 0.64
11,TGTATAAAAGTTTATACACACATTTGATATATTTCA [CACACA_site6606],7.68 ± 0.3
12,TATAAAAAAAACAAAAAAAAAAAAAAACAAAAAAAA [TGCATGCA_negctrl_site514],7.53 ± 0.76
13,TTTTTTTGTTGTTGTTGTACGATATTTTCCTTATCA [XGTACX_site2375],7.93 ± 0.54
14,GGGGGGATGAGATATTGTACTTTTTAGGAAAGTGTA [XGTACX_site2835],9.52 ± 0.11
15,CGTGGGAGCGGACACACACACACACCCATATATATA [CACACA_site4340],8.34 ± 0.69
16,AATTTAAAAGCTTGTGGTACTTTTGCTCTTCCTTTG [XGTACX_site3148],7.78 ± 0.69
17,TCAACAAATAAACTTTGTACATATATACAAAATATA [XGTACX_site4447],7.51 ± 0.33
18,TATGTATTAAATTTTACACACATGATTCTCTATATG [CACACA_site8720],7.62 ± 0.53
19,TATACATATTATATATGTACACATATTATATGTATA [XGTACX_site5851],7.55 ± 0.042
20,TAACATGATATATAATGTACATATAAGATATTTATA [XGTACX_site4383],7.79 ± 0.28
21,ATGAATTATATATTATGTACATATAATTAAAATATA [XGTACX_site7140],7.61 ± 0.18
22,TTTAAAAAAAAAAAAAAAAATTAAATGAATTATTAA [CACACA_negctrl_site1121],6.92 ± 0.52

row,Sequence,gcPBM binding intensity (ln)
1,ATACAAAAAAGAAGGACACACAGAAGTAACATGTTA [CACACA_site3074],7.84 ± 0.59
2,AAATATAATAATATATGTACATATATATATATATAT [XGTACX_site6980],9.22 ± 0.7
3,AAAAAAATATATATATATATATATATATATATATAT [TGCATGCA_negctrl_site7],9.19 ± 0.69
4,AAAAAAAAAAAAAAAAAAAAAAAAAAAAAAAAAAAT [CACACA_negctrl_site882],10.4 ± 0.23
5,AAATTAAATAAATTTACACACTAAAAGTTACCTATA [CACACA_site6623],7.54 ± 0.53
6,TTTGTTATTTATTAGTGTACAAAAAAGCATTTCAAA [XGTACX_site8729],7.96 ± 0.2
7,TACATTTATAATAATACACACATAAATTTACATTTT [CACACA_site3463],7.74 ± 0.39
8,TATGAAAATTAAGTTTGTACACAAGTGGAAAAAAAA [XGTACX_site6129],8.4 ± 0.42
9,ATATAAAGAAATTAATTTTTCAACAATAAAAATATA [CACACA_negctrl_site1262],7.46 ± 0.36
10,AATAATGTATAATGATGTACAAAAAAGGAAGACATA [XGTACX_site2474],8.23 ± 0.86
11,ATATTTTGTAATATTTGTACATATATTATACATATA [XGTACX_site963],7.89 ± 0.34
12,TTTTTTTTGCGTACAGTGCAAATTTATTTACTATTC,9.76 ± 0.21
13,TACATCGGTATATAAACACACAACAAAAATGCTTAC [CACACA_site5983],7.82 ± 0.77
14,AAAATAATTAAAAAAAGTACTCGTAATATAAATATA [XGTACX_site4967],7.82 ± 0.35
15,TTAAAAGATATTACATGTACATATTCAATATATGTA [XGTACX_site5895],7.62 ± 0.38
16,ACAAATAAATAAAAATGTACAAATGAATACATCTTA [XGTACX_site3780],7.33 ± 0.39
17,TTTTTTTAAAAAAACAAAAAAAAAAAAAATATAAAA [TGCATGCA_negctrl_site511],7.49 ± 0.55
18,TATGTAAAAAGAGAAAAAAAAAAGAACGATAATTTC [CACACA_negctrl_site946],7.51 ± 0.79
19,ATATAAGAATTTAAGAGTACATTCACTTCAAATTTA [XGTACX_site2115],7.58 ± 0.38
20,AGGTGTATCATAAAATGTACATACATACATACATAA [XGTACX_site4479],7.94 ± 0.57
21,TATTATTATTTTTTATGTACTAACGACAAAAATATT [XGTACX_site252],7.86 ± 0.32
22,TTGTAATTCATTCAAATATAAAATAAATAAATATGA [CACACA_negctrl_site349],7.38 ± 0.5
